# The whole screen tested about 150,000 compounds, of which about 540 (0.36%) showed an effect of 50% or more. The list shows a part of the results.
# Test system: Plasmodium falciparum
# Test: Primary screen in NF54 nanoGlo assay, in single point, at 2uM, 72h; a lower Z score goes with more inhibition
# Type: functional, Erythrocyte
# Details: timepoint 72 hour
Compound,% Inhibition [%],Z score
Cc1cc(-c2nnc(NC(=O)C(c3ccccc3)c3ccccc3)o2)n(C)n1,-12,2.23
Cc1cnc(CN(CCC2=CCCCC2)CC2CC2)cn1,8,-1.12
COc1cccc(S(=O)(=O)N2[C@H]3CCNC[C@@H]2CC3)c1,-5,0.73
CCCCNC(=O)c1cccc(-c2cnc3[nH]cnc3c2)c1,-8,1.45
CC1(CN2CCC(N3C[C@H](COc4ccc(F)cc4)OCC3=O)CC2)CCOCC1,-10,1.95
Cc1ccc2c(c1)[C@H]1CN(C)CCCC1N2S(=O)(=O)c1ccccc1 (stereo partly drawn),-1,0.16
CC(C)(C)OC(=O)N1CCC[C@H](Nc2ccccc2CO)CC1,1,-0.25
Cc1cc(-c2nn(-c3ccccc3F)cc2CN(C)Cc2cnn(C)c2)c(C)s1,19,-2.43
O=C(N[C@@H]1[C@@H]2CCO[C@@H]2[C@H]1N1CCCCC1)c1n[nH]c2c1CCCC2,-7,1.07
COc1ccc(CNC(=O)C[C@H]2C(=O)NCCN2Cc2ccccn2)cc1,2,-0.16
COC(=O)c1nc([C@@H]2CCCN2C(=O)c2ncccc2O)sc1C,-7,0.98
Cn1nccc1-c1ccc(CNC(=O)c2ccccc2)cn1,3,-0.32
CC(=O)Nc1ccc(S(=O)(=O)NC[C@@H](c2ccsc2)n2cccn2)cc1,-2,0.4
CC(=O)Nc1cccc(NC(=O)c2ccc3c(c2)CCCN3S(=O)(=O)c2ccc(C)cc2)c1,3,-0.61
CCc1cc(C(=O)N2CCCC[C@H]2c2cccc(F)c2)ccn1,-13,2.48
CC(C)n1cc(NC(=O)c2ccc([C@@H]3CCCN3)s2)nn1,-18,2.17
CCc1ncc(CN2CCCCC[C@H]2c2cccc(F)c2)cn1,3,-0.51
CNC1CCCN(C(=O)C2CCN(c3cc(Cl)ccc3Cl)C2=O)C1 (stereo not drawn),-2,0.27
CC[C@H]1[C@@H](NC(=O)Cn2ccnn2)[C@H]2CCO[C@H]21,-6,0.67
O=C(COc1ccccc1F)N(CCn1ccc(C(F)(F)F)n1)C1CCCC1,-6,1.16
Cc1noc(C)c1S(=O)(=O)N1CCC[C@](CC2CC2)(c2noc(-c3cccnc3)n2)C1,13,-1.67

Compound,% Inhibition [%],Z score
O=C(c1cccc(F)c1)N1CCN(c2nc(-c3ccccc3)nc3cc(Cl)ccc23)CC1,-1,0.08
Cc1cc(C)cc(NC(=O)Cc2nc(-c3cccs3)no2)c1,-12,2.13
Cc1nonc1CN1C(=O)N(C)c2ccccc2S1(=O)=O,34,-3.89
O=S(=O)(Nc1ccc(F)cc1OCC1CC1)c1cn[nH]c1,39,-5.68
Nc1c(C(=O)N2CCCCC2)sc(=S)n1Cc1ccccc1,-6,0.77
Cc1ccccc1Cn1nnc2cc(C(=O)N3CCCCC3)ccc21,-23,2.34
COCc1cc(CNc2ccc(Cl)cn2)no1,-5,0.74
COC1(C(=O)Nc2cccc3c2CCO3)CCOCC1,-12,1.88
CC(C)c1ocnc1C(=O)N[C@@H](C)c1nc(-c2ccncc2)cs1,-10,1.44
Cc1cc(N2CCC(CNC(=O)c3scnc3C)CC2)c2ccccc2n1,1,-0.21
CCc1nnc(NC(=O)Cn2nc(C)cc2C)s1,2,-0.27
CO[C@@H](CC(C)C)CS(=O)(=O)N(C)c1ccn(C)n1,-13,1.26
CCc1cc(N(C)Cc2ncc(Br)cn2)nc(C)n1,-4,0.68
Cc1ccc(C(=O)N2CCC(COc3ccc(C(=O)N4CCOCC4)cc3)CC2)s1,1,-0.19
COC[C@H]1CC[C@H]1NC(=O)c1oc(CO)cc1C,0,-0.04
O=C(N[C@@H]1C[C@H]2OCC[C@@H]12)c1ccon1,-5,0.47
COc1c(C(=O)Nc2cccc(F)c2)oc2ccc(NC(=O)Cc3ccccc3C)cc12,0,-0.04
CN(Cc1cccc(Cl)c1)Cc1cc(=O)n2ncnc2[nH]1,-9,1.31
COc1ccc(CNC(=O)c2cccc(Oc3cc(-c4ccc(F)cc4)ncn3)c2)c(OC)c1,-5,0.67
COc1cccc(-c2cc(O)cc(CC[C@H]3CCCCN3)c2)n1,80,-13.26
Cc1ccccc1CNC(=O)N1CC[C@@](O)(C2CCOCC2)[C@H](C)C1,-15,1.99

Compound,% Inhibition [%],Z score
Cc1ccc(S(=O)(=O)NCC2(N)CCC2)s1,-1,0.17
CC(=O)N1CCN(c2cc(C3CC(O)C3)ncn2)CC1 (stereo not drawn),-13,1.75
O=c1ccc(-c2ccccc2)nn1Cc1coc(-c2ccc(Br)cc2)n1,-43,5.04
CC(=O)N1CCCCC1CC(=O)N1CCCCC1Cn1cc(C)cn1 (stereo not drawn),9,-1.2
COc1ccc(NC(=O)Cc2nnc(-c3ccc4ncccc4c3)o2)c(C)c1,-12,1.19
CC(CCc1cccc(F)c1)C(=O)N1CCCC(CCC(=O)O)C1 (stereo not drawn),2,-0.31
CCN1C(=O)C(=O)N(CN2CCc3cc(OC)c(OC)cc3[C@@H]2c2ccccc2)C1=O,-1,0.23
c1coc(CNc2nc(Nc3cccc4ccccc34)nc3ccccc23)c1,40,-3.65
Cc1cnc(C(=O)N2CC[C@@]3(CCCN(CC4CCC4)C3=O)C2)cn1,-7,0.67
Cn1cc(Cl)cc1C(=O)N1C[C@@H]2CCC[C@H](C1)C(=O)N2,-3,0.53
CCc1n[nH]c(=O)c2cc(S(=O)(=O)Nc3ccc(C)cc3)cn12,3,-0.39
CCN(C(=O)Cn1c(=O)c(C#N)c2n(c1=O)CCC2)c1ccccc1C,-18,3.42
Cn1c(CN2CCCC2)nnc1C1CCN(C(=O)c2ccc(O)cc2)CC1,-9,1.31
CCC1(CC)CN(C(=O)[C@H]2CCN(CCOC)C2)CCO1,-10,2.04
COc1ccc(C(Nc2nc3ccccc3o2)[C@H]2C[C@H](O)C2)cn1 (stereo partly drawn),2,-0.33
CCOC(=O)c1n[nH]cc1[C@@H]1CC(=O)Nc2c1cnn2Cc1cccnc1,0,-0.07
CCN(Cc1cnn(C)c1)S(=O)(=O)c1cc2c(cc1Cl)OCCO2,-6,0.69
O=C1[C@H]2Cc3ccccc3CN2C(=O)CN1CCc1ccccc1,3,-0.56
CCN1C(=O)C[C@H](C(=O)NCc2ccc(C)o2)[C@H]1c1nccn1CC,-4,0.78
CC[C@H](O)Cn1nc(CCc2ccccc2)nc1CNC(C)=O,7,-0.93
CNC(=O)c1ccc(NC(=O)CCOC(C)C)c(Cl)c1,-1,0.1

Compound,% Inhibition [%],Z score
Cn1nnnc1CN1CCCN(c2cccc(F)c2F)CC1,-2,0.35
CCc1ccnc(CNC(=O)N2CC(O)CC2c2cccc(F)c2)c1 (stereo not drawn),1,-0.14
CC(C)NC(=O)CNC(=O)C(=O)Nc1ccccc1O,3,-0.4
CCc1nc(C)c(CN2CCC(Oc3cc(OC)ccc3C(=O)NCCOC)CC2)[nH]1,-14,2.68
CCCN1C(=O)[C@@H]2C(C(=O)Nc3cccc(Cl)c3)[C@@H]3C=C[C@]2(O3)C1C(=O)NC1CCCC(C)C1C (stereo partly drawn),-14,2.21
CS(=O)(=O)N1C[C@H]2CCN(Cc3c(F)cccc3F)C[C@H]21,-12,1.63
Cc1cccc(N2CCCC2CN2CCCC2CO)n1 (stereo not drawn),-16,2.09
Cc1c(Br)cccc1CS(=O)(=O)CCC#N,6,-0.64
COc1cccc(CO[C@H]2CN(CC(C)C)C(=O)CN(C(=O)c3cncs3)C2)c1,-10,1.32
COc1c(C(=O)N[C@H](c2c(C)nn(C)c2C)C(F)(F)F)cnn1C,-11,1.6
Cn1c(=O)n(C)c2cc(N3CCCC3)c(NC(=O)NCCc3ccccc3)cc21,-12,2.4
COCCC(C)(C)C(=O)Nc1ncc(Cl)s1,-5,0.71
CC[C@](C)(CO)CNC(=O)c1ccc(C)c(O)c1,-6,0.65
C[C@H](NCC(=O)Nc1cccc(Br)c1)c1ccc(C(F)F)nc1,-10,1.56
O=C(NCCc1cnc(O)nc1)[C@@H]1Cc2ccccc21,-1,0.21
CCCCS(=O)(=O)NCCNc1ccc(C)nn1,-18,3.58
COc1cccc(C(=O)N2CCN(C(=O)c3cc(C)c(C)[nH]c3=O)CC2)c1,8,-1.16
CN(C[C@H]1COCCO1)C(=O)c1ccc(CO)o1,2,-0.38
CCc1nc(C)nc(N2CCN(C[C@@H](O)Cc3ccccc3)CC2)c1Cc1ccc(Cl)cc1,-11,1.61
CNS(=O)(=O)CCNC(=O)Nc1ccc2c(cnn2C)c1,-8,1.54
O=C(Nc1ccccc1F)N1CCC2(CC1)C[C@@H](CCOCC1CC1)CCO2,-8,1.58
